# Laboratory results from article PMC12136788.
# The other results are listed elsewhere or left out.
# T1: UNK ZnF1-3 (human, UniProt Q9C0B0 31-174)
# T1 sequence: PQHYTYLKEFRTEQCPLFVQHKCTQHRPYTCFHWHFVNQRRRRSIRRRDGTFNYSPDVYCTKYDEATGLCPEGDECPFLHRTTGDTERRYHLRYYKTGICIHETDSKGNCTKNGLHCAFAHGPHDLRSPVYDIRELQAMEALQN
# B1: chr1:60041781:60041782:+_ENSMUSG00000041040_ENSMUST00000036540|mus_hu|mus_mus_mus_hu_False|38_108 (ssRNA)
# RNA: GGGAGUUCUACAGUCCGACGAUCAAGAGGAGUGAAUUAAAGUAAAUGCAGUAGUGGCAAAUUUUCUUUUAUUUUCCUUCACAAAAGAAAAUCUUUAGAUCUCAGUUCUAGUCUUGGACAUAGUGAAAGCUAUAAAUUCUGACUCAACAGAGGAUUGAGCAUCA
# B2: 93489317_93489437_2376_CDS_ENSG00000173575_ENST00000394196|human|control|control (ssRNA)
# RNA: GGGAGUUCUACAGUCCGACGAUCUCUUGUUGGGAUGGUUUUUGAGUUGUUCCUACUGUGGAAGCUGUCAAUGCAAUUCUGGAAUUUCUUUCCAAUGAGGGCUUCAUCUUCCCAGCUACACUCUGAAUAGGGGAGUCCCAUCCACAACAGAGGAUUGAGCAUCA
# B3: 83748629_83748749_3059_CDS_ENSG00000138674_ENST00000348405|human|control|control (ssRNA)
# RNA: GGGAGUUCUACAGUCCGACGAUCCUGGCCACCUGGAAGAUGUGGCUGUGGGAAUGAAGACUGGCUUGACAGUGGUACUGGAGCUGAAGGCUGUUGCUGCAGCAUUUGUGACUGGGGGUCACCCAACGGGUUCAUGAUUGGUGACAACAGAGGAUUGAGCAUCA
# B4: 69601168_69614239_201_CDS_ENSG00000198380_ENST00000361060|human|control|control (ssRNA)
# RNA: GGGAGUUCUACAGUCCGACGAUCCUGAAGGCCUUUGAUUAGGGUCUCCAGGAUUUCUCGUCUCGUUCGAGGAACAUGGUAGUUUAAGUAAGCAAAUAUACCACACAUGAUGCCGGAGACACGGCCCGCGAGGCCAGGGGCGAGCAACAGAGGAUUGAGCAUCA
# B5: 215781420_215785192_1725_CDS_ENSG00000136636_ENST00000259154|human|control|control (ssRNA)
# RNA: GGGAGUUCUACAGUCCGACGAUCUUGAUCGUCUCGCUCUCCAAAAGGUCCUAUGUCAUUUCCAGAGGAAUAGCUACCAUGACUUUCUGUCUCCUCCAGGGAUAGUAUCUUGAAUGACGCUAAAGGAGUAGAACCUGGCUGAGUCAACAGAGGAUUGAGCAUCA
# B6: chr7:141441981:141441982:+_ENSG00000106028_ENST00000265304|hu_mus|hu_hu_hu_mus_False|8_28 (ssRNA)
# RNA: GGGAGUUCUACAGUCCGACGAUCCUCAUGUCUUACAAACUGACGAAAUACCUGUAACACAGGUCUUCGAAACAUGGCUUCUGUUUUUCUUACAACCUAAUCUUUAGUUAGGCUUUUAAGGAAAGAAUAACCCGAGCAAAAUGACAACAGAGGAUUGAGCAUCA
# B7: 54496482_54496602_1247_3pUTR_ENSMUSG00000039156_ENSMUST00000071083|mouse|control|control (ssRNA)
# RNA: GGGAGUUCUACAGUCCGACGAUCUCAGCUCACACUCUGCGCCCUCCCUCAGCUCCCGCAGCCGACAGGCCUCCUCCUUGGCAUAGUUGAUUUCAUCCAUCAUUUUCCGUUCCAGAUUUUGCUUUUCUACAGCAACAGUUCUGUCAACAGAGGAUUGAGCAUCA
# B8: chrX:39613801:39613802:+_ENSMUSG00000025862_ENSMUST00000069619|mus_mus|motif|central (ssRNA)
# RNA: GGGAGUUCUACAGUCCGACGAUCCAAGUUUAAAGGUGGAUGGCUCUCCCCUUGUGGAUUAGGCUCCUUAAAAGCAAAUUCGGUACCAUCUUUGUGGAGCAUGGCAAUGGCUUCUCUGGUUUUCAAUUGAUCAAGUCCAAAAGUCAACAGAGGAUUGAGCAUCA
# B9: chr1:66480114:66480115:+_ENSMUSG00000015222_ENSMUST00000024639|mus_hu|FALSE|FALSE (ssRNA)
# RNA: GGGAGUUCUACAGUCCGACGAUCUGGCCUGUGGCGGAUGUUCUUCAGAGAGCCACAUUUGGAUGUCACAUGGCUUAGGUCUAUUUUCUUGGUAACAAUUUGUACCUGCCCCCCUUUAGGCUGGUAUUUGAUGUUGUCUGUUGACAACAGAGGAUUGAGCAUCA
# B10: chr14:61435135:61435136:+_ENSG00000020426_ENST00000539616|hu_hu|FALSE|FALSE (ssRNA)
# RNA: GGGAGUUCUACAGUCCGACGAUCUAAAUACUUUAACACAGCUGCUAGUGGAAGGACUGUGUUGUGCAGCUGCACAUAGCUAUAAUUUUAUAAGUCUGCUUUACUUUUGCUAGCUCCCUGGUUCAGCUCCAAGGUCCAAAUCUUCAACAGAGGAUUGAGCAUCA
# B11: chr7:35424158:35424159:-_ENSMUSG00000030499_ENSMUST00000108069|mus_hu|FALSE|FALSE (ssRNA)
# RNA: GGGAGUUCUACAGUCCGACGAUCGUACAUCAGCAUCUUUACAAUAUUAAAGGAGCCAUAUACAAGUCUACAGCCAUUGUACACAGGAUGGUGAUGGCUGGGGAGCCCCGCCCACCAGUCCUCUGCAGUUUCUCCACCGGAGAACAACAGAGGAUUGAGCAUCA
# B12: chr11:102546300:102546301:-_ENSMUSG00000020925_ENSMUST00000092569|mus_mus|FALSE|FALSE (ssRNA)
# RNA: GGGAGUUCUACAGUCCGACGAUCAAAAAUGACUGGGCCAAACUUGGCCCGUGAGUGGAGUCUUCUGACCCCUGGUAUAAAAUAAUCUUAUCAGAGAAACUGUUCUCUUGAGGCUUUUGAUACCUGUUGCCCAAAGUCAGGUACCAACAGAGGAUUGAGCAUCA
# B13: chr17:74801258:74801259:+_ENSMUSG00000024069_ENSMUST00000024870|mus_mus|motif|central (ssRNA)
# RNA: GGGAGUUCUACAGUCCGACGAUCGUUGAUUGCACCGAACAGAAGGAUCUUCCAGGACCUCCGGUCAGCUGCGACAAGUCGGAAUUCCUGUAGUAACUUUCCAAAAAAAGAUCUCUGUGGCUUUCGAAAGAGAUGAAUCGUCCCCAACAGAGGAUUGAGCAUCA
# B14: chr22:32894459:32894460:+_ENSG00000100225_ENST00000397426|hu_hu|motif|central (ssRNA)
# RNA: GGGAGUUCUACAGUCCGACGAUCACAAAUCAAUCACAUGAAUGACAGCCGGCCAUCAGUUGGCCGACCCCUGCUGGGUCGGAAGGGAAAUCUGUCAUUGGGGCCGCCUCGCCCUGGCAAGAUGGGGUUAGGUCCUGGAAGUGGCAACAGAGGAUUGAGCAUCA
# Target: T1, UNK ZnF1-3
# Experiment: nsRBNS (natural sequence RNA bind-n-seq); RBNS binding buffer (assumed for nsRBNS): 25 mM Tris pH 7.5, 150 mM KCl, 3 mM MgCl2, 0.01% Triton X-100, 500 ug/ml BSA, 20 U/ml SUPERase-In, 4 C; UNK is unkempt and MSI1 is Musashi-1; names of the RNAs are library labels; protein concentration not given here; high values mean tight binding
row,Binder,binding signal [enrichment R]
1,B1,0.519
2,B2,0.728
3,B3,1.25
4,B4,0.865
5,B5,0.925
6,B6,0.626
7,B7,0.837
8,B8,0.97
9,B9,0.484
10,B10,0.756
11,B11,1.59
12,B12,0.945
13,B13,0.954
14,B14,1.11
